The source of these data is the RNAGym collection of RNA variant scans (doi:10.7554/elife.90254).

The source gives no read counts; variants with many changes may rest on few reads.

The labels stand for the following.
B1: LINE1-mini (parent)
chain: GGCAGAGCUCAACACAGCGUGGCAAAGUGGCUGUGGCUAGACUGCC

Variants of B1 are the subject of the data set. Put plainly: self-cleavage, relative activity (ratio to wild type); higher = more cleavage; in vitro, sequencing; the parent is a self-cleaving ribozyme.
Take G7C A25U G36C: the self-cleavage came out at 0.14.

As to G7A C15G A39G C45U, the self-cleavage was 0.12.

With G7C C15U G40C G44A, the self-cleavage worked out at 0.02.

Turning to G7C U9G U28A G35C, the self-cleavage turned out to be 0.08.

With G7C U9C C10A A11C A12C C23U G27C U28C G33C, the self-cleavage came out at 0.01.

For the variant G7C G27C G33A C42G, the self-cleavage stood at 0.07.

G7U A14C A41G: the self-cleavage was found to be 0.08.

For the variant G7A C10U C18G G27U C45G, the self-cleavage is 0.06.

Regarding G7A G22U A41U, the self-cleavage amounted to 0.13.

G7A C10U A12G A25C: the self-cleavage was 0.01.

For G7C A12U C15A G21C A24C, the self-cleavage was determined as 0.04.

Regarding G7C C18G U28A, the self-cleavage came out at 0.03.

On to G7U A11C G17A G30C G40C, for which the self-cleavage was 0.01.

As to G7U C8G A14C G35U A41G, the self-cleavage was 0.09.

As for G7C A14G C15A U20C G21U G36C C42G, the self-cleavage worked out at 0.02.

As for G7A G22A G33A, the self-cleavage is 0.1.

As for G7C G27U C42G, the self-cleavage turned out to be 0.07.

On to G7A U9G G21U C23A, for which the self-cleavage was found to be 0.01.

As to G7C C15G C45U, the self-cleavage worked out at 0.09.

Regarding G7A U32C U34C A41G, the self-cleavage turned out to be 0.13.

As to G7C G27C U34C, the self-cleavage stood at 0.3.

G7A G22C A25G C46A: the self-cleavage came out at 0.08.

Turning to G7C G21U C23A G29A G30U U43C, the self-cleavage came out at 0.05.

As to G7U A12G A14U C31U, the self-cleavage amounted to 0.02.

As to G7A C31G U32G C37G, the self-cleavage is 0.01.

In the case of G7C G17U C23U G29A U32A G35C, the self-cleavage was 0.19.

As to G7C G17U U43A, the self-cleavage turned out to be 0.05.

With G7C A41G C45U, the self-cleavage was 0.02.

On to G7A C15A G17A, for which the self-cleavage was determined as 0.11.

On to G7A G22U G30U, for which the self-cleavage was 0.07.

With G7C C23G C45U, the self-cleavage was determined as 0.13.

In the case of G7U A11U U28C U38G G44A, the self-cleavage is 0.

Consider G7U A25U C37A, for which the self-cleavage was found to be 0.11.

As for G7A C10A A11C U28A G30U, the self-cleavage worked out at 0.01.

As for G7A C10A A14G G35C G44C, the self-cleavage is 0.02.

Turning to G7A U9G A12G, the self-cleavage came out at 0.15.

With G7C U9A A16U, the self-cleavage is 0.03.

Regarding G7C G19A G27C, the self-cleavage worked out at 0.11.

With G7U A12G G19A C31A, the self-cleavage came out at 0.12.

On to G7C G17A C37G U38G, for which the self-cleavage was 0.06.

As to G7U A11U C13U C18G G19A G40C C42U, the self-cleavage stood at 0.01.

G7A C10G G33U: the self-cleavage is 0.03.

Turning to G7C U28A C37A C42U, the self-cleavage is 0.24.

As for G7C G22U A41U, the self-cleavage amounted to 0.24.

For G7A G27U G36U, the self-cleavage was 0.01.

As for G7U A25U G35U, the self-cleavage worked out at 0.16.

G7C C23U C46A: the self-cleavage is 0.05.

G7C C23U C37U: the self-cleavage was found to be 0.05.

G7C G27U A39U: the self-cleavage stood at 0.04.

Take G7A C18G G30A: the self-cleavage was 0.56.

For G7A G21C G33A G35A A39C, the self-cleavage came to 0.23.

Take G7C U32C C37U: the self-cleavage came to 0.02.

For the variant G7U A14G C23U G29C G35U C37U, the self-cleavage turned out to be 0.

For G7C U28C G29U, the self-cleavage was 0.07.

Regarding G7A U9A G22U C23G A26C, the self-cleavage worked out at 0.36.

Regarding G7U A11U A16C, the self-cleavage was determined as 0.02.

For the variant G7C C10U C15U U20A G30U, the self-cleavage came to 0.06.

For the variant G7A U28A C45U, the self-cleavage is 1.01.

For the variant G7A U9G C18A C31U, the self-cleavage stood at 0.03.

As to G7C G17C A26C, the self-cleavage worked out at 0.05.

On to G7C U9C A16C U20G, for which the self-cleavage was found to be 0.01.

Regarding G7U A12G A26C A39C, the self-cleavage is 0.36.

With G7C U9G C23A G30C C31U C45A, the self-cleavage is 0.02.

Take G7C A14U A16G: the self-cleavage came out at 0.11.

For the variant G7U A11U U38A, the self-cleavage turned out to be 0.02.

G7C U9C U28C C46U: the self-cleavage was 0.11.

Regarding G7A C10A C13A, the self-cleavage turned out to be 0.06.

As to G7C A24C C45U, the self-cleavage came to 0.03.

Turning to G7U C8A U9G A16G G29U C31G G33U G36A, the self-cleavage was 0.01.

For G7C G22A C23A G29C C31A U32G G44A C45U, the self-cleavage was 0.01.

For the variant G7U A11G G17U C18G C23A, the self-cleavage came out at 0.01.

For G7A C23G A41G, the self-cleavage was 0.24.

As for G7C C23U U43C, the self-cleavage stood at 0.07.

For the variant G7U A26U G29A, the self-cleavage was 0.04.

For the variant G7C C15U G27U, the self-cleavage was determined as 0.05.

Regarding G7C A12U C15A U20C C23G, the self-cleavage worked out at 0.07.

For the variant G7U A12C G36U, the self-cleavage came out at 0.04.

As to G7C G17U G21U G35A, the self-cleavage turned out to be 0.02.

In the case of G7A C8U U9G C31U U32C G33A G44C C45G, the self-cleavage was determined as 0.02.

For the variant G7C C15A C31G, the self-cleavage was 0.05.

In the case of G7C C8G A12U A41C, the self-cleavage is 0.36.

For the variant G7A U9G U34G A41C, the self-cleavage worked out at 0.04.

In the case of G7A C10U A11C C23U C37U, the self-cleavage came to 0.01.

On to G7A C10G A11C, for which the self-cleavage was 0.01.

As for G7A C10A A24U G40C, the self-cleavage is 0.02.

Regarding G7A G21U G35U, the self-cleavage came to 0.21.

For the variant G7A U20G C31G U43C G44A, the self-cleavage came out at 0.04.

For G7C C18A G21C, the self-cleavage was found to be 0.06.

As for G7U A16U A25U G44C C45U, the self-cleavage was 0.03.

For G7C G33A G35C U43A, the self-cleavage is 0.03.

Consider G7U A14C G21U, for which the self-cleavage was found to be 0.06.

Regarding G7U A12U G40C, the self-cleavage turned out to be 0.14.

Turning to G7A C15A U20G G29C C37G U38C, the self-cleavage came out at 0.2.

As for G7C C18A C23A A26U G29C G33A, the self-cleavage worked out at 0.01.

Regarding G7C U9C C10U G17A G27U G40U, the self-cleavage came out at 0.02.

For the variant G7A C15A G35U U38G G40C, the self-cleavage was found to be 0.2.

Turning to G7A U20A G22C, the self-cleavage was 0.07.

As for G7U A12U C15U G22C A24G U38G C42U, the self-cleavage was 0.02.

Turning to G7C G22A C23A A26G G27C, the self-cleavage was 0.31.

In the case of G7U A14G G27U G40A, the self-cleavage is 0.18.

As for G7A C23G C46U, the self-cleavage turned out to be 0.21.

For the variant G7A C10U C18G G30C U38A, the self-cleavage stood at 0.01.

In the case of G7U A11C G27A U43C, the self-cleavage came out at 0.03.

Regarding G7A G19A G27U A41C, the self-cleavage amounted to 0.27.

G7A G17C G30A: the self-cleavage turned out to be 0.43.

As to G7C C23G C46A, the self-cleavage was found to be 0.14.

As to G7A C18U G19U G21U, the self-cleavage worked out at 0.54.

In the case of G7C C13G G21U G29U, the self-cleavage amounted to 0.13.

As to G7C G17U C18A C23U A25U, the self-cleavage worked out at 0.05.

As for G7A C15A U28A, the self-cleavage was determined as 0.13.

Turning to G7C C13G G21A, the self-cleavage amounted to 0.1.

On to G7C A16G C23U, for which the self-cleavage was 0.08.

For the variant G7C U34G A41G, the self-cleavage was 0.01.

With G7U A16C C46A, the self-cleavage was found to be 0.04.

In the case of G7A G19A G30A U34C, the self-cleavage came to 0.28.

On to G7C U9A C18U U38A A39G, for which the self-cleavage amounted to 0.02.

As to G7C U9A A39G, the self-cleavage was determined as 0.

As to G7U A11G A25U, the self-cleavage came out at 0.02.

For the variant G7U A14G A26G G27C A41G, the self-cleavage was 0.06.

For G7C G22U U43C C46G, the self-cleavage came out at 0.43.

In the case of G7C G17A A24U A26U, the self-cleavage turned out to be 0.05.

As to G7C C23A C42U, the self-cleavage was determined as 0.3.

On to G7C A25U U38G A41U, for which the self-cleavage stood at 0.

Take G7A C10U A26U U32C U38G: the self-cleavage was 0.

For G7A C10A G33U C45A, the self-cleavage worked out at 0.01.

In the case of G7C C15G G29U, the self-cleavage turned out to be 0.07.

As for G7A C13G G17U G22U A25C G30A, the self-cleavage is 0.08.

Turning to G7U A24C U28C C31A G33C, the self-cleavage came to 0.04.

As to G7A G35A C42G C46U, the self-cleavage is 0.03.

As for G7C C15G G19U C45U, the self-cleavage worked out at 0.08.

As to G7A C18A A26G U28C G44A, the self-cleavage is 0.06.

Regarding G7A U20A G27U G30C C31G C46A, the self-cleavage is 0.05.

Regarding G7A C10A C18A G29U U38A, the self-cleavage came out at 0.

As for G7C C10G C13G, the self-cleavage turned out to be 0.

Consider G7C C13A G22U G30U G33A U43G, for which the self-cleavage stood at 0.01.

Take G7C C18U U43C C45G: the self-cleavage was 0.09.

Regarding G7C C10A A12C A25C U34C, the self-cleavage is 0.

As to G7C C10A C15G C31U U34C A41G, the self-cleavage is 0.01.

For G7U A12U G19U C23U A24C A39G, the self-cleavage is 0.01.

Turning to G7A C15G G33A C45A, the self-cleavage is 0.07.

Turning to G7A G40U C45A, the self-cleavage worked out at 0.26.

Take G7C A24G C37U A41C: the self-cleavage is 0.03.

On to G7A C31A G35C C37U, for which the self-cleavage amounted to 0.01.

With G7U C8A G27C, the self-cleavage was determined as 0.15.

In the case of G7C C8U C13A A16C C46G, the self-cleavage was found to be 0.26.

G7C A26U U28C C37U G40C: the self-cleavage worked out at 0.06.

For the variant G7A G19A C23A, the self-cleavage came out at 0.06.

In the case of G7A G36C C37A, the self-cleavage was 0.02.

For the variant G7C C13G A41G U43A, the self-cleavage was 0.03.

On to G7C C31U G35C, for which the self-cleavage was determined as 0.07.

On to G7C C13U A39U, for which the self-cleavage is 0.08.

In the case of G7C A24C G35U, the self-cleavage is 0.15.

With G7A C13A U28A C31G, the self-cleavage is 0.19.

Consider G7C G22U C23A, for which the self-cleavage came out at 0.2.

For G7U A16U G27U, the self-cleavage was 0.19.

Turning to G7A G21A G29C G33U A41U, the self-cleavage was found to be 0.11.

As to G7C C10G G40A, the self-cleavage stood at 0.02.

Regarding G7C A14C C18G G33U, the self-cleavage worked out at 0.03.

For the variant G7U A16U A24C, the self-cleavage turned out to be 0.08.

Turning to G7A C23G G33C, the self-cleavage was determined as 0.01.

For G7C U20A A41U C42U, the self-cleavage is 0.14.

As for G7A C15A G36U, the self-cleavage is 0.15.

For the variant G7U A11G A16C, the self-cleavage was 0.02.

For G7A C13A C15U G17U U20G, the self-cleavage was determined as 0.03.

Regarding G7C U9G C10U G22A U38C, the self-cleavage is 0.02.

Regarding G7U A26G G33U, the self-cleavage came out at 0.01.

In the case of G7C A11U A16U C18U A41U, the self-cleavage was determined as 0.02.
